# The other results are listed elsewhere or left out.
# Molecular target: T1, MBP-FoxP1dN (Mus musculus, UniProt P58462 326-579)
# T1 sequence: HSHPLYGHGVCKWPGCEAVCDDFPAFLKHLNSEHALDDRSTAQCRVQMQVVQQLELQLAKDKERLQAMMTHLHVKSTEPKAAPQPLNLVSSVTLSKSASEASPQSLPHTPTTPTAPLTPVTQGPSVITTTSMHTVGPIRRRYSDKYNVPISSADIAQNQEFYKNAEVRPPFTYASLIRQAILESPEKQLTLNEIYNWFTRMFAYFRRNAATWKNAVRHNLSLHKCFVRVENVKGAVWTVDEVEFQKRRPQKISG
# Test: PD-seq (MBP pull-down with sequencing); 20 mM Tris-HCl pH 7.5, 100 mM NaCl, 1.5 mM MgCl2, 0.4 uM protein, 0.1 uM dsDNA library, 30 min, room temperature, amylose pull-down; high values mean tight binding
# Settings: protein: recombinant; tags: His6-MBP; chain copies: 2; dsDNA, one strand shown
# Procedure, shortened: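 The N-terminus-lacking fragment of mouse FoxP3 or FoxP1 carried a His6-MBP tag and was expressed in E. coli. At 0.4 µM it was incubated with 0.1 µM Klenow-filled degenerate double-stranded DNA library for 30 min at room temperature in Tris pH 7.5 buffer with NaCl and MgCl2, and complexes were caught on amylose resin, washed three times, released with proteinase K, PCR-barcoded and Illumina-sequenced. Binding is reads-per-million enrichment of pull-down over input with replicates pooled.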
row,Sequence,binding signal
1,GATGATTGTTCTCCCAGCTGATGAATTTGTTCAGTCGAGTAAACAAATTTTCCTAATCTTTCTGTTCAAGCGCCATCTAC,1.02 RPM ratio (pull-down/input)
2,GATGATTGTTCTCCCAGCTGATGAATTAGTTTGATCGAGTAAACAAATTTTCCTAATCTTTCTGTTCAAGCGCCATCTAC,0.918 RPM ratio (pull-down/input)
3,GATGATTGTTCTCCCAGCTGATGAATTTAGGCTCTCGAGTAAACAAATTTTCCTAATCTTTCTGTTCAAGCGCCATCTAC,0.864 RPM ratio (pull-down/input)
4,GATGATTGTTCTCCCAGCTGATGAATTCGTTTATTCGAGTAAACAAATTTTCCTAATCTTTCTGTTCAAGCGCCATCTAC,1.25 RPM ratio (pull-down/input)
5,GATGATTGTTCTCCCAGCTGATGAATTCGCTTATTCGAGTAAACAAATTTTCCTAATCTTTCTGTTCAAGCGCCATCTAC,0.94 RPM ratio (pull-down/input)
6,GATGATTGTTCTCCCAGCTGATGAATTGTCACAGTCGAGTAAACAAATTTTCCTAATCTTTCTGTTCAAGCGCCATCTAC,1.08 RPM ratio (pull-down/input)
7,GATGATTGTTCTCCCAGCTGATGAATTGGTCTTTTCGAGTAAACAAATTTTCCTAATCTTTCTGTTCAAGCGCCATCTAC,1.08 RPM ratio (pull-down/input)
8,GATGATTGTTCTCCCAGCTGATGAATTTATTTCATCGAGTAAACAAATTTTCCTAATCTTTCTGTTCAAGCGCCATCTAC,1.16 RPM ratio (pull-down/input)
9,GATGATTGTTCTCCCAGCTGATGAATTCAATTAGTCGAGTAAACAAATTTTCCTAATCTTTCTGTTCAAGCGCCATCTAC,0.9 RPM ratio (pull-down/input)
10,GATGATTGTTCTCCCAGCTGATGAATTCAATGGGTCGAGTAAACAAATTTTCCTAATCTTTCTGTTCAAGCGCCATCTAC,0.819 RPM ratio (pull-down/input)
11,GATGATTGTTCTCCCAGCTGATGAATTCTACTGTTCGAGTAAACAAATTTTCCTAATCTTTCTGTTCAAGCGCCATCTAC,0.845 RPM ratio (pull-down/input)
12,GATGATTGTTCTCCCAGCTGATGAATTACTCTTCTCGAGTAAACAAATTTTCCTAATCTTTCTGTTCAAGCGCCATCTAC,1 RPM ratio (pull-down/input)
13,GATGATTGTTCTCCCAGCTGATGAATTGCCTTTGTCGAGTAAACAAATTTTCCTAATCTTTCTGTTCAAGCGCCATCTAC,1.05 RPM ratio (pull-down/input)
14,GATGATTGTTCTCCCAGCTGATGAATTACCGGCTTCGAGTAAACAAATTTTCCTAATCTTTCTGTTCAAGCGCCATCTAC,0.905 RPM ratio (pull-down/input)
15,GATGATTGTTCTCCCAGCTGATGAATTCCCCCTGTCGAGTAAACAAATTTTCCTAATCTTTCTGTTCAAGCGCCATCTAC,0.778 RPM ratio (pull-down/input)
16,GATGATTGTTCTCCCAGCTGATGAATTGGTCCTGTCGAGTAAACAAATTTTCCTAATCTTTCTGTTCAAGCGCCATCTAC,0.842 RPM ratio (pull-down/input)
17,GATGATTGTTCTCCCAGCTGATGAATTCCCTGTATCGAGTAAACAAATTTTCCTAATCTTTCTGTTCAAGCGCCATCTAC,0.931 RPM ratio (pull-down/input)
18,GATGATTGTTCTCCCAGCTGATGAATTTGATCTGTCGAGTAAACAAATTTTCCTAATCTTTCTGTTCAAGCGCCATCTAC,0.827 RPM ratio (pull-down/input)
19,GATGATTGTTCTCCCAGCTGATGAATTTCTACCTTCGAGTAAACAAATTTTCCTAATCTTTCTGTTCAAGCGCCATCTAC,0.845 RPM ratio (pull-down/input)
20,GATGATTGTTCTCCCAGCTGATGAATTGAGCTCCTCGAGTAAACAAATTTTCCTAATCTTTCTGTTCAAGCGCCATCTAC,0.782 RPM ratio (pull-down/input)
21,GATGATTGTTCTCCCAGCTGATGAATTGTTCAGGTCGAGTAAACAAATTTTCCTAATCTTTCTGTTCAAGCGCCATCTAC,0.922 RPM ratio (pull-down/input)

row,Sequence,binding signal
1,GATGATTGTTCTCCCAGCTGATGAATTTTGTAGGTCGAGTAAACAAATTTTCCTAATCTTTCTGTTCAAGCGCCATCTAC,0.919 RPM ratio (pull-down/input)
2,GATGATTGTTCTCCCAGCTGATGAATTCTCCAATTCGAGTAAACAAATTTTCCTAATCTTTCTGTTCAAGCGCCATCTAC,0.957 RPM ratio (pull-down/input)
3,GATGATTGTTCTCCCAGCTGATGAATTTTCAATCTCGAGTAAACAAATTTTCCTAATCTTTCTGTTCAAGCGCCATCTAC,0.823 RPM ratio (pull-down/input)
4,GATGATTGTTCTCCCAGCTGATGAATTGCTTTAGTCGAGTAAACAAATTTTCCTAATCTTTCTGTTCAAGCGCCATCTAC,1.06 RPM ratio (pull-down/input)
5,GATGATTGTTCTCCCAGCTGATGAATTGCCTTTCTCGAGTAAACAAATTTTCCTAATCTTTCTGTTCAAGCGCCATCTAC,1 RPM ratio (pull-down/input)
6,GATGATTGTTCTCCCAGCTGATGAATTGAGGTCCTCGAGTAAACAAATTTTCCTAATCTTTCTGTTCAAGCGCCATCTAC,0.772 RPM ratio (pull-down/input)
7,GATGATTGTTCTCCCAGCTGATGAATTTTGGGCCTCGAGTAAACAAATTTTCCTAATCTTTCTGTTCAAGCGCCATCTAC,0.804 RPM ratio (pull-down/input)
8,GATGATTGTTCTCCCAGCTGATGAATTAATAAAGTCGAGTAAACAAATTTTCCTAATCTTTCTGTTCAAGCGCCATCTAC,1.09 RPM ratio (pull-down/input)
9,GATGATTGTTCTCCCAGCTGATGAATTCCACCGATCGAGTAAACAAATTTTCCTAATCTTTCTGTTCAAGCGCCATCTAC,0.835 RPM ratio (pull-down/input)
10,GATGATTGTTCTCCCAGCTGATGAATTTGACGGGTCGAGTAAACAAATTTTCCTAATCTTTCTGTTCAAGCGCCATCTAC,0.814 RPM ratio (pull-down/input)
11,GATGATTGTTCTCCCAGCTGATGAATTTTTTTCCTCGAGTAAACAAATTTTCCTAATCTTTCTGTTCAAGCGCCATCTAC,0.754 RPM ratio (pull-down/input)
12,GATGATTGTTCTCCCAGCTGATGAATTATCACAATCGAGTAAACAAATTTTCCTAATCTTTCTGTTCAAGCGCCATCTAC,1.44 RPM ratio (pull-down/input)
13,GATGATTGTTCTCCCAGCTGATGAATTTACTACATCGAGTAAACAAATTTTCCTAATCTTTCTGTTCAAGCGCCATCTAC,1.44 RPM ratio (pull-down/input)
14,GATGATTGTTCTCCCAGCTGATGAATTCGACGATTCGAGTAAACAAATTTTCCTAATCTTTCTGTTCAAGCGCCATCTAC,0.836 RPM ratio (pull-down/input)
15,GATGATTGTTCTCCCAGCTGATGAATTAGTGTTTTCGAGTAAACAAATTTTCCTAATCTTTCTGTTCAAGCGCCATCTAC,2.42 RPM ratio (pull-down/input)
16,GATGATTGTTCTCCCAGCTGATGAATTGGCGCCATCGAGTAAACAAATTTTCCTAATCTTTCTGTTCAAGCGCCATCTAC,0.945 RPM ratio (pull-down/input)
17,GATGATTGTTCTCCCAGCTGATGAATTCACGATATCGAGTAAACAAATTTTCCTAATCTTTCTGTTCAAGCGCCATCTAC,1.02 RPM ratio (pull-down/input)
18,GATGATTGTTCTCCCAGCTGATGAATTCGCTGTCTCGAGTAAACAAATTTTCCTAATCTTTCTGTTCAAGCGCCATCTAC,0.815 RPM ratio (pull-down/input)
19,GATGATTGTTCTCCCAGCTGATGAATTACTCAGCTCGAGTAAACAAATTTTCCTAATCTTTCTGTTCAAGCGCCATCTAC,0.942 RPM ratio (pull-down/input)
20,GATGATTGTTCTCCCAGCTGATGAATTAGTGCGGTCGAGTAAACAAATTTTCCTAATCTTTCTGTTCAAGCGCCATCTAC,0.85 RPM ratio (pull-down/input)
21,GATGATTGTTCTCCCAGCTGATGAATTGTGAATCTCGAGTAAACAAATTTTCCTAATCTTTCTGTTCAAGCGCCATCTAC,0.99 RPM ratio (pull-down/input)

row,Sequence,binding signal
1,GATGATTGTTCTCCCAGCTGATGAATTCATTCAATCGAGTAAACAAATTTTCCTAATCTTTCTGTTCAAGCGCCATCTAC,0.933 RPM ratio (pull-down/input)
2,GATGATTGTTCTCCCAGCTGATGAATTTTCGTTCTCGAGTAAACAAATTTTCCTAATCTTTCTGTTCAAGCGCCATCTAC,0.94 RPM ratio (pull-down/input)
3,GATGATTGTTCTCCCAGCTGATGAATTTAAGAGGTCGAGTAAACAAATTTTCCTAATCTTTCTGTTCAAGCGCCATCTAC,0.798 RPM ratio (pull-down/input)
4,GATGATTGTTCTCCCAGCTGATGAATTCATATAATCGAGTAAACAAATTTTCCTAATCTTTCTGTTCAAGCGCCATCTAC,1.16 RPM ratio (pull-down/input)
5,GATGATTGTTCTCCCAGCTGATGAATTCGATGGCTCGAGTAAACAAATTTTCCTAATCTTTCTGTTCAAGCGCCATCTAC,0.84 RPM ratio (pull-down/input)
6,GATGATTGTTCTCCCAGCTGATGAATTCTCAGTATCGAGTAAACAAATTTTCCTAATCTTTCTGTTCAAGCGCCATCTAC,0.923 RPM ratio (pull-down/input)
7,GATGATTGTTCTCCCAGCTGATGAATTATTCTACTCGAGTAAACAAATTTTCCTAATCTTTCTGTTCAAGCGCCATCTAC,0.985 RPM ratio (pull-down/input)
8,GATGATTGTTCTCCCAGCTGATGAATTCCACCGGTCGAGTAAACAAATTTTCCTAATCTTTCTGTTCAAGCGCCATCTAC,0.744 RPM ratio (pull-down/input)
9,GATGATTGTTCTCCCAGCTGATGAATTCATCTGATCGAGTAAACAAATTTTCCTAATCTTTCTGTTCAAGCGCCATCTAC,0.904 RPM ratio (pull-down/input)
10,GATGATTGTTCTCCCAGCTGATGAATTCACTACATCGAGTAAACAAATTTTCCTAATCTTTCTGTTCAAGCGCCATCTAC,0.992 RPM ratio (pull-down/input)
11,GATGATTGTTCTCCCAGCTGATGAATTAAGAGCCTCGAGTAAACAAATTTTCCTAATCTTTCTGTTCAAGCGCCATCTAC,0.924 RPM ratio (pull-down/input)
12,GATGATTGTTCTCCCAGCTGATGAATTAGGAGTGTCGAGTAAACAAATTTTCCTAATCTTTCTGTTCAAGCGCCATCTAC,0.918 RPM ratio (pull-down/input)
13,GATGATTGTTCTCCCAGCTGATGAATTTCTATTATCGAGTAAACAAATTTTCCTAATCTTTCTGTTCAAGCGCCATCTAC,1.48 RPM ratio (pull-down/input)
14,GATGATTGTTCTCCCAGCTGATGAATTTACAGAGTCGAGTAAACAAATTTTCCTAATCTTTCTGTTCAAGCGCCATCTAC,1.12 RPM ratio (pull-down/input)
15,GATGATTGTTCTCCCAGCTGATGAATTAATTAGTTCGAGTAAACAAATTTTCCTAATCTTTCTGTTCAAGCGCCATCTAC,0.983 RPM ratio (pull-down/input)
16,GATGATTGTTCTCCCAGCTGATGAATTAGTAAACTCGAGTAAACAAATTTTCCTAATCTTTCTGTTCAAGCGCCATCTAC,1.63 RPM ratio (pull-down/input)
17,GATGATTGTTCTCCCAGCTGATGAATTGTTCTGTTCGAGTAAACAAATTTTCCTAATCTTTCTGTTCAAGCGCCATCTAC,1.18 RPM ratio (pull-down/input)
18,GATGATTGTTCTCCCAGCTGATGAATTCCAATCGTCGAGTAAACAAATTTTCCTAATCTTTCTGTTCAAGCGCCATCTAC,0.771 RPM ratio (pull-down/input)
19,GATGATTGTTCTCCCAGCTGATGAATTAGGAGATTCGAGTAAACAAATTTTCCTAATCTTTCTGTTCAAGCGCCATCTAC,0.894 RPM ratio (pull-down/input)
20,GATGATTGTTCTCCCAGCTGATGAATTCAGTGTTTCGAGTAAACAAATTTTCCTAATCTTTCTGTTCAAGCGCCATCTAC,1.03 RPM ratio (pull-down/input)
21,GATGATTGTTCTCCCAGCTGATGAATTGTCCCCTTCGAGTAAACAAATTTTCCTAATCTTTCTGTTCAAGCGCCATCTAC,1.01 RPM ratio (pull-down/input)
